Reference: the supplement of paper PMC11876631
± gives the standard deviation of the averaged measurements. Laboratory Escherichia coli strains with one amino-acid change in an essential protein, pooled on minimal glucose agar with carbenicillin or gentamicin at twice the control MIC (plus kanamycin and chloramphenicol for the plasmids), 48 h. Fold change of barcode share against drug-free plates; higher = less susceptible. Active = above 20 in both replicates (the paper's putatively resistant). '<' = one read or none on drug, '>' = one read or none on a drug-free plate. Shares are relative, so most strains fall below 1 when a few take over. Listed are strains with at least 15 reads on both drug-free plates, and hits; most hits rest on fewer reference reads. Replicate rank correlation about 0.5. Edits are read from barcodes.

B1: tilS L29A (protein)
chain: MTLTLNRQLLTSRQILVAFSGGLDSTVLAHQLVQWRTENPGVALRAIHVHHGLSANADAWVTHCENVCQQWQVPLVVERVQLAQEGLGIEAQARQARYQAFARTLLPGEVLVTAQHLDDQCETFLLALKRGSGPAGLSAMAEVSEFAGTRLIRPLLARTRGELVQWARQYDLRWIEDESNQDDSYDRNFLRLRVVPLLQQRWPHFAEATARSAALCAEQESLLDELLADDLAHCQSPQGTLQIVPMLAMSDARRAAIIRRWLAGQNAPMPSRDALVRIWQEVALAREDASPCLRLGAFEIRRYQSQLWWIKSVTGQSENIVPWQTWLQPLELPAGLGSVQLNAGGDIRPPRADEAVSVRFKAPGLLHIVGRNGGRKLKKIWQELGVPPWLRDTTPLLFYGETLIAAAGVFVTQEGVAEGENGVSFVWQKTLS
B2: tilS V27A (protein)
chain: MTLTLNRQLLTSRQILVAFSGGLDSTALLHQLVQWRTENPGVALRAIHVHHGLSANADAWVTHCENVCQQWQVPLVVERVQLAQEGLGIEAQARQARYQAFARTLLPGEVLVTAQHLDDQCETFLLALKRGSGPAGLSAMAEVSEFAGTRLIRPLLARTRGELVQWARQYDLRWIEDESNQDDSYDRNFLRLRVVPLLQQRWPHFAEATARSAALCAEQESLLDELLADDLAHCQSPQGTLQIVPMLAMSDARRAAIIRRWLAGQNAPMPSRDALVRIWQEVALAREDASPCLRLGAFEIRRYQSQLWWIKSVTGQSENIVPWQTWLQPLELPAGLGSVQLNAGGDIRPPRADEAVSVRFKAPGLLHIVGRNGGRKLKKIWQELGVPPWLRDTTPLLFYGETLIAAAGVFVTQEGVAEGENGVSFVWQKTLS
B3: tilS I152A (protein)
chain: MTLTLNRQLLTSRQILVAFSGGLDSTVLLHQLVQWRTENPGVALRAIHVHHGLSANADAWVTHCENVCQQWQVPLVVERVQLAQEGLGIEAQARQARYQAFARTLLPGEVLVTAQHLDDQCETFLLALKRGSGPAGLSAMAEVSEFAGTRLARPLLARTRGELVQWARQYDLRWIEDESNQDDSYDRNFLRLRVVPLLQQRWPHFAEATARSAALCAEQESLLDELLADDLAHCQSPQGTLQIVPMLAMSDARRAAIIRRWLAGQNAPMPSRDALVRIWQEVALAREDASPCLRLGAFEIRRYQSQLWWIKSVTGQSENIVPWQTWLQPLELPAGLGSVQLNAGGDIRPPRADEAVSVRFKAPGLLHIVGRNGGRKLKKIWQELGVPPWLRDTTPLLFYGETLIAAAGVFVTQEGVAEGENGVSFVWQKTLS
B4: tilS L29Q (protein)
chain: MTLTLNRQLLTSRQILVAFSGGLDSTVLQHQLVQWRTENPGVALRAIHVHHGLSANADAWVTHCENVCQQWQVPLVVERVQLAQEGLGIEAQARQARYQAFARTLLPGEVLVTAQHLDDQCETFLLALKRGSGPAGLSAMAEVSEFAGTRLIRPLLARTRGELVQWARQYDLRWIEDESNQDDSYDRNFLRLRVVPLLQQRWPHFAEATARSAALCAEQESLLDELLADDLAHCQSPQGTLQIVPMLAMSDARRAAIIRRWLAGQNAPMPSRDALVRIWQEVALAREDASPCLRLGAFEIRRYQSQLWWIKSVTGQSENIVPWQTWLQPLELPAGLGSVQLNAGGDIRPPRADEAVSVRFKAPGLLHIVGRNGGRKLKKIWQELGVPPWLRDTTPLLFYGETLIAAAGVFVTQEGVAEGENGVSFVWQKTLS
B5: tilS V27Q (protein)
chain: MTLTLNRQLLTSRQILVAFSGGLDSTQLLHQLVQWRTENPGVALRAIHVHHGLSANADAWVTHCENVCQQWQVPLVVERVQLAQEGLGIEAQARQARYQAFARTLLPGEVLVTAQHLDDQCETFLLALKRGSGPAGLSAMAEVSEFAGTRLIRPLLARTRGELVQWARQYDLRWIEDESNQDDSYDRNFLRLRVVPLLQQRWPHFAEATARSAALCAEQESLLDELLADDLAHCQSPQGTLQIVPMLAMSDARRAAIIRRWLAGQNAPMPSRDALVRIWQEVALAREDASPCLRLGAFEIRRYQSQLWWIKSVTGQSENIVPWQTWLQPLELPAGLGSVQLNAGGDIRPPRADEAVSVRFKAPGLLHIVGRNGGRKLKKIWQELGVPPWLRDTTPLLFYGETLIAAAGVFVTQEGVAEGENGVSFVWQKTLS
B6: tilS L111Q (protein)
chain: MTLTLNRQLLTSRQILVAFSGGLDSTVLLHQLVQWRTENPGVALRAIHVHHGLSANADAWVTHCENVCQQWQVPLVVERVQLAQEGLGIEAQARQARYQAFARTLLPGEVQVTAQHLDDQCETFLLALKRGSGPAGLSAMAEVSEFAGTRLIRPLLARTRGELVQWARQYDLRWIEDESNQDDSYDRNFLRLRVVPLLQQRWPHFAEATARSAALCAEQESLLDELLADDLAHCQSPQGTLQIVPMLAMSDARRAAIIRRWLAGQNAPMPSRDALVRIWQEVALAREDASPCLRLGAFEIRRYQSQLWWIKSVTGQSENIVPWQTWLQPLELPAGLGSVQLNAGGDIRPPRADEAVSVRFKAPGLLHIVGRNGGRKLKKIWQELGVPPWLRDTTPLLFYGETLIAAAGVFVTQEGVAEGENGVSFVWQKTLS

Target: Escherichia coli (laboratory strain)
Experiment: barcode share on antibiotic plates over drug-free plates; higher = less susceptible
Procedure: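 A pool of E. coli strains, each edited to carry one amino-acid change in an essential protein, was grown for 48 h on minimal glucose agar with or without antibiotic; strain barcodes were sequenced; mean of two replicates.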

[1] = antibiotic: carbenicillin, 2× MIC (3.1 µg/mL)
[2] = antibiotic: gentamicin, 2× MIC (MIC 0.45 µg/mL)

Protein	fold change of barcode share [1]	fold change of barcode share [2]
B1	0.35 ± 0.12	< 0.00451
B2	0.214 ± 0.037	< 0.011
B3	0.303 ± 0.065	0.0116 ± 0.014
B4	0.447 ± 0.14	0.0102 ± 0.0054
B5	0.3591 ± 0.0011	< 0.0159
B6	0.225 ± 0.093	0.0514 ± 0.052
